# Test results published in paper PMC9911399, “Two distinct binding modes provide the RNA-binding protein RbFox with extraordinary sequence specificity”.
# Substitutions are numbered along the chain they refer to; changes in the protein carry UniProt numbers. Some of the results follow.
# T1: RBFOX1 RRM (Homo sapiens, UniProt Q9NWB1 109-208)
# T1 sequence: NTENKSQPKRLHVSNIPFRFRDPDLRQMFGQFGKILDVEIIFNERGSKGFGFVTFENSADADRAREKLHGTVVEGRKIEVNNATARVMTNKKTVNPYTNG
# B1: AUAAGUU (DNA:RNA)
# RNA: GGGAGACCGGAAUUCAGAUUGUCCAUAAGUUUUAAAUCCCGUCGUAGCCACCA
# DNA 1: CAATCTGAATTCCGGTCTCCC
# DNA 2: TGGTGGCTACGACGGGATT
# B2: UGACUGU (DNA:RNA)
# RNA: B1 RNA with A25U, U26G, A28C, G29U, U30G
# DNA 1: CAATCTGAATTCCGGTCTCCC
# DNA 2: TGGTGGCTACGACGGGATT
# B3: CACCAAC (DNA:RNA)
# RNA: GGGAGACCGGAAUUCAGAUUGUCCCACCAACUUAAAUCCCGUCGUAGCCACCA
# DNA 1: CAATCTGAATTCCGGTCTCCC
# DNA 2: TGGTGGCTACGACGGGATT
# B4: UCCCUUG (DNA:RNA)
# RNA: B3 RNA with C25U, A26C, A29U, A30U, C31G
# DNA 1: CAATCTGAATTCCGGTCTCCC
# DNA 2: TGGTGGCTACGACGGGATT
# B5: UUUGAGC (DNA:RNA)
# RNA: B3 RNA with C25U, A26U, C27U, C28G, A30G
# DNA 1: CAATCTGAATTCCGGTCTCCC
# DNA 2: TGGTGGCTACGACGGGATT
# B6: CGGCUAC (DNA:RNA)
# RNA: B3 RNA with A26G, C27G, A29U
# DNA 1: CAATCTGAATTCCGGTCTCCC
# DNA 2: TGGTGGCTACGACGGGATT
# B7: UCUCAUC (DNA:RNA)
# RNA: B3 RNA with C25U, A26C, C27U, A30U
# DNA 1: CAATCTGAATTCCGGTCTCCC
# DNA 2: TGGTGGCTACGACGGGATT
# B8: UUACUCG (DNA:RNA)
# RNA: B1 RNA with A25U, A28C, G29U, U30C, U31G
# DNA 1: CAATCTGAATTCCGGTCTCCC
# DNA 2: TGGTGGCTACGACGGGATT
# B9: ACCGGGU (DNA:RNA)
# RNA: B1 RNA with U26C, A27C, A28G, U30G
# DNA 1: CAATCTGAATTCCGGTCTCCC
# DNA 2: TGGTGGCTACGACGGGATT
# Target: T1, RBFOX1 RRM
# Test: EMSA; HiTS-Eq, 1 nM pool, 10 min; buffer printed only for the single-RNA assays: 10 mM Tris pH 7.5, 150 mM NaCl, 3.4 mM EDTA, 0.001% NP-40, 30 C
# Conditions: tags: His6 N-terminal (pET28a); label: 5' 32P
# How it was run: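 Purified RbFox RRM (wild type or mutant) was equilibrated for 10 min in 50 µL with 1 nM of a 5′-radiolabelled pool of RNA with 7 randomized nucleotides, its flanks annealed to DNA oligonucleotides, across increasing protein concentrations. Free RNA was separated by 8% native PAGE, excised, reverse-transcribed, PCR-barcoded and sequenced on an Illumina HiSeq 2500. Relative association constants came from read-count changes of each variant against the control reaction, normalised to the cognate motif.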
row,Binder,binding signal
1,B1,0.00282 KA relative to UGCAUGU
2,B2,0.032 KA relative to UGCAUGU
3,B3,0.000216 KA relative to UGCAUGU
4,B4,0.0183 KA relative to UGCAUGU
5,B5,0.0185 KA relative to UGCAUGU
6,B6,0.0135 KA relative to UGCAUGU
7,B7,0.00276 KA relative to UGCAUGU
8,B8,0.00965 KA relative to UGCAUGU
9,B9,0.013 KA relative to UGCAUGU
